Several values for one entry are separate records, joined by “and”; a condition that tells them apart may be missing. Identical values can stand only once.

One data set relates to EGFR (L858R/T790M). Conditions: Figure 2; cited from earlier work.
The test system of another data set is EGFR (WT). Conditions: Figure 2; cited from earlier work.
For data set [1], the target named is T1, double mutant EGFR^L858R/T790M (Homo sapiens, UniProt P00533, L858R/T790M).
T1 construct: purchased AssayQuant Technologies, Inc. (Marlboro, MA, USA)
Put plainly: In vitro EGFR inhibition assay, double mutant. Type of data set: biochemical.

Data set [2] concerns LPS-induced NO production in RAW 264.7 cells. In words: NO production in LPS-activated RAW 264.7 macrophage cells (DAF-FM diacetate). It counts as cell-based. To be noted: Mus musculus, RAW264.7; LPS-activated RAW 264.7 cells; mean ± SEM, three replicates. How it is done:
(§1) TNF-α and IL-6 production were detected in RAW 264.7 macrophage cell culture supernatants following the induction of inflammation by LPS. Moreover, the probes of oxidative species 2,7-dichlorofluorescein diacetate (DCFH-DA) (Molecular Probes) and NO, 4-amino-5-methylamino-2,7-difluorofluorescein diacetate (DAF-FM diacetate) (Molecular Probes) were used to investigate the antioxidant and NO production inhibitory potential of the test compounds. Briefly, RAW 264.7 cells were cultured in black 96 well plates (200 000 cells/mL, 100 µl/well) for 24 h followed by the incubation with the individual test compounds or the reference drugs at different concentrations (12.5, 25, 50, and 100 µM) for 2 h at 37 °C. LPS was then added at a final concentration of 1 µg/mL for an additional 18 h. The cell culture supernatant was collected from cells treated with the different compounds at 25 µM to measure TNF-α and IL-6 levels (1:10 dilution) using DuoSet ELISA kits (R&D Systems, Minneapolis, MN) following the manufacturer’s instructions. Then, the plates were washed to perform ROS and NO detection assays as detailed in our previous studies[16]^,[27].

Another data set has as its target T2, ovine COX-1 (Ovis aries, UniProt P05979).
T2 sequence (P05979 25-600): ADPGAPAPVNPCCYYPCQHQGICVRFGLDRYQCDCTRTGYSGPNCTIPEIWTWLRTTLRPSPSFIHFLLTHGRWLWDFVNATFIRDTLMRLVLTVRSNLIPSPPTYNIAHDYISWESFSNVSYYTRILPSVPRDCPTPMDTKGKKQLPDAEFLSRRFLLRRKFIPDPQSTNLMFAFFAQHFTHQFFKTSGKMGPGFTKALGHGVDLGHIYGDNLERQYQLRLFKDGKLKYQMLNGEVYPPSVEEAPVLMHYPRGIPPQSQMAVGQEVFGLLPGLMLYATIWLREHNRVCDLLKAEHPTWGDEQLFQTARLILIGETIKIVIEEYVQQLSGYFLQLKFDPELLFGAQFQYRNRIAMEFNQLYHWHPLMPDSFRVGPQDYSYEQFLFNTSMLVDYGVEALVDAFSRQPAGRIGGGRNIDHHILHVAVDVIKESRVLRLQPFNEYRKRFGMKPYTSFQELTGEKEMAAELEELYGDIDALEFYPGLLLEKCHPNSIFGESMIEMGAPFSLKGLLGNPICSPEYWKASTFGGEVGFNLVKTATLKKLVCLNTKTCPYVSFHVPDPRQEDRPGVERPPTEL
Put plainly: In vitro COX-1 inhibition assay kit (Cayman). Conditions: mean ± SEM, n = 3 replicates. It counts as biochemical.

Another data set addresses T3, human recombinant COX-2 (Homo sapiens, UniProt P35354).
T3 sequence (P35354 18-604): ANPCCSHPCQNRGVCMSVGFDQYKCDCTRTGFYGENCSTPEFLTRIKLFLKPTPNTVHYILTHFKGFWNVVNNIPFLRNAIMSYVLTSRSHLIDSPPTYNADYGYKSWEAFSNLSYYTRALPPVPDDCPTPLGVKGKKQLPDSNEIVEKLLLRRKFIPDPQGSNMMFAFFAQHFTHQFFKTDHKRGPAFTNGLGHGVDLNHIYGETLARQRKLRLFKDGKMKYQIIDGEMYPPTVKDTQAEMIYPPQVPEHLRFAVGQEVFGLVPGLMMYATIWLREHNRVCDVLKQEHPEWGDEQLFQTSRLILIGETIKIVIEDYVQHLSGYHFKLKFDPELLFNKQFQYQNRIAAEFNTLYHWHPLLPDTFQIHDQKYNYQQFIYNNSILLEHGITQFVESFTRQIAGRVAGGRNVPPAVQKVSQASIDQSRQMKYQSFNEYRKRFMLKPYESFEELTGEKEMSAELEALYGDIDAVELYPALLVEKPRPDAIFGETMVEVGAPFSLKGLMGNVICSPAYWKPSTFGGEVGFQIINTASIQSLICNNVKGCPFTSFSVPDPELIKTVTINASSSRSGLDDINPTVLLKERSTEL
In words: In vitro COX-2 inhibition assay kit (Cayman). Type of data set: biochemical.

For data set [3], the system named is LPS-induced TNF-α production in RAW 264.7 cells. Put plainly: TNF-α production in LPS-activated RAW 264.7 cells (ELISA). It counts as cell-based. Conditions: LPS-activated RAW 264.7 cells treated with 25 µM of the compound. For orientation: In an ELISA, binding on a coated surface is turned into a signal by an enzyme label.
In the next data set the target is T4, soybean 15-LOX (Glycine max, UniProt P08170).
T4 sequence (P08170 1-839): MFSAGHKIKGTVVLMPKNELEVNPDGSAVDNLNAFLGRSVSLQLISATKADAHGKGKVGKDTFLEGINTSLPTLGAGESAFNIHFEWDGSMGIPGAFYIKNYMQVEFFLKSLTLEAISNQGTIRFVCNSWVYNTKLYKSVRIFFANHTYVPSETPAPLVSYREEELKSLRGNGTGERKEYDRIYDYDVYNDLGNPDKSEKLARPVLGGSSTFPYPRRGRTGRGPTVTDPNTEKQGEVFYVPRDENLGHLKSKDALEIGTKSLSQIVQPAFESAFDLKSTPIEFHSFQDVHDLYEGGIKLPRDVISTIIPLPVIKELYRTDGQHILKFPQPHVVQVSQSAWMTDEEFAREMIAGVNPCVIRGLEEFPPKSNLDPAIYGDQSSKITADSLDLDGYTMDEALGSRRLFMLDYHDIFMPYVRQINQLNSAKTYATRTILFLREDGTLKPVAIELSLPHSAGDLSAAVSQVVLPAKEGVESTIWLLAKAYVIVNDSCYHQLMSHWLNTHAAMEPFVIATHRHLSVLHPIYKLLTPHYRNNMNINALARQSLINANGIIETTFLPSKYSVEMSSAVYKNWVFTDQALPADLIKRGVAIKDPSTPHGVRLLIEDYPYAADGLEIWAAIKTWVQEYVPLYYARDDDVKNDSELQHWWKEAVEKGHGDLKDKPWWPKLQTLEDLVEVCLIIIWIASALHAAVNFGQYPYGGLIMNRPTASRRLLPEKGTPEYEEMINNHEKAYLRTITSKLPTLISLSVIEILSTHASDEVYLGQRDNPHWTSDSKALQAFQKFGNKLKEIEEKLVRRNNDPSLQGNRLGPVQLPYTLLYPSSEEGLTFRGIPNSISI
Put plainly: 15-LOX inhibitor screening assay (Cayman). It counts as biochemical. To be noted: mean ± SEM, n = 3 replicates.

In data set [4] the test system is LPS-induced IL-6 production in RAW 264.7 cells. In words: IL-6 production in LPS-activated RAW 264.7 cells (ELISA). It counts as cell-based. To be noted: LPS-activated RAW 264.7 cells treated with 25 µM of the compound.
Another data set deals with T5, wild-type EGFR (Homo sapiens, UniProt P00533).
T5 construct: purchased AssayQuant Technologies, Inc. (Marlboro, MA, USA)
In words: In vitro EGFR inhibition assay, wild type. Type of data set: biochemical. To be noted: read-out: EGFR^WT IC50.

Data set [5] deals with LPS-induced ROS production in RAW 264.7 cells. In words: ROS production in LPS-activated RAW 264.7 macrophage cells (DCFH-DA). It counts as cell-based. Conditions: Mus musculus, RAW264.7; LPS-activated RAW 264.7 cells; mean ± SEM, three replicates. How it is done: as §1

The IC50 is the concentration needed to halve the response being measured. As to `C=CC(=O)Nc1cccc(-n2c(-c3ccccc3)nc3cc(I)ccc3c2=O)c1` [F], the IC50 with EGFR (L858R/T790M) was 5.7 nM; with EGFR (WT), 26 nM.
On to `C=CC(=O)Nc1ccc2ncc(NC(=O)Nc3ccccc3)nc2c1` [H], for which the half-inhibitory concentration (IC50) with EGFR (WT) is 25 nM.
For orientation: melting point means the temperature, or range, at which the solid turns liquid. Consider `COc1ccc(NC(=O)NN2C(=O)c3ccccc3N(C)C2c2ccccc2)cc1` (stereo not drawn) [Compound 6h, 1-(4-Methoxyphenyl)-3-(1-methyl-4-oxo-2-phenyl-1,4-dihydroquinazolin-3(2H)-yl)urea], for which the melting point lay within 196 to 198 °C. Further, 23700 ± 3540 nM corresponded to half-maximal inhibition in [1] (double mutant EGFR) (IC50). Besides, the “Selectivity (SI)” value in data set [1] (ratio of the IC50 values EGFR^WT/EGFR^L858R/T790M) was over 4.2. The molecule also returned an IC50 in data set [2] of 2730 ± 320 nM. This molecule also returned an IC50 against ovine COX-1 of 47500 ± 4990 nM. Also, at human recombinant COX-2 (Selectivity index = COX-1 IC50/COX-2 IC50), the “COX-2 SI” value is 16.92. Besides, the half-inhibitory concentration (IC50) on human recombinant COX-2 (human recombinant COX-2, mean ± SEM, n = 3 replicates) stood at 2810 ± 1200 nM. For the same molecule, the TNF-α concentration in data set [3] is 720.60 pg/mL and 720.60 ± 4.90 pg/mL. The same molecule gave an IC50 on soybean 15-LOX of 2030 ± 370 nM. Further, in data set [4], the IL-6 concentration came to 328.9 ± 1.31 pg/mL. The IC50 at wild-type EGFR was over 100000 nM. In data set [5], this molecule had a concentration for half-maximal inhibition (IC50) of 41200 ± 1000 nM.

The values above are taken from article PMC10114980, “Triple targeting of mutant EGFR^L858R/T790M, COX-2, and 15-LOX: design and synthesis of novel quinazolinone tethered phenyl urea derivatives for anti-inflammatory and anticancer evaluation” (Journal of Enzyme Inhibition and Medicinal Chemistry, 2023).
